# Measurements reported in PubChem BioAssay AID1347073 (National Center for Advancing Translational Sciences (NCATS), 2019).
# The campaign covered roughly 45,000 compounds. About 200 (0.44%) were called active. Another 7% or so got no clear call; they are omitted. The call rests on the fitted dose curve; in most records, active means well fitted activation curve with a large enough effect; inconclusive means small, poorly fitted or top-dose-only effect; inactive means no such curve, though single readings can be large or run the other way. Some of the results follow.
# Assay: qHTS of TDP-43 Inhibitors: NCGC Sytravon Library Screen; further: 0% is about no effect; nearly all actives have a fitted effect of over 55% in size
# Conditions: yeast TDP-43 toxicity rescue, BacTiter-Glo growth, 24 h; series mostly up to 46.1 µM; growth rescue (activation): at the top concentration
# How it was run: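 TDP-43-expressing yeast, pregrown in raffinose, seeded at OD600 0.02 in galactose medium with compound for 24 hr at 30 deg C. Growth read by BacTiter-Glo luminescence, so rescue of toxicity appears as activation.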
row,SMILES,growth rescue (activation)
1,CCOC(=O)c1[nH]c(CN2CCN(c3ccc(OC)cc3)CC2)c(C(=O)OCC)c1C,inactive: 8.9%
2,O=C(NCc1ccccn1)C(=O)Nc1cccc2ccccc12,inactive: 27.5%
3,CC(C)(C)c1ccc(Oc2ccc(NC(=O)C3CC=CCC3C(=O)O)cc2)cc1 (stereo not given),inactive: 23.1%
4,COc1cccc(NC(=O)NNC(=O)CN2C(=O)COc3ccccc32)c1,inactive: 3.03%
5,CN(C)C(=O)c1cccc(-c2cnc3c(NC=O)cc(-c4ccc(C(=O)N5CCOCC5)cc4)cn23)c1,inactive: -6.62%
6,O=S(=O)(c1ccc(=S)[nH]c1)N1CCCC1,inactive: 11.3%
7,CC(CN(C)Cc1ccccc1)OC(=O)c1ccccc1F (stereo not given),inactive: 16.9%
8,O=C(NC1CC2CCC1C2)c1ccco1 (stereo not given),inactive: -36.9%
9,O=[N+]([O-])c1ccc2nc(NS(=O)(=O)c3ccccc3[N+](=O)[O-])sc2c1,inactive: 10.3%
10,CCCNC(=O)C1(C)CCCN(Cc2c(C)nn(-c3ccccc3)c2C)C1 (stereo not given),inactive: 8.23%
11,O=C(Nc1cccc2ccccc12)c1ccc2sc([C@H]3C[C@H](O)[C@@H](CO)O3)nc2c1,inactive: -0.192%
12,CCOCCCNc1ncc2c(n1)CC(c1ccc(C)cc1)CC2=O (stereo not given),inactive: -12%
13,Cc1ccc(NC(=O)COC(=O)C(NS(=O)(=O)c2ccc(Cl)cc2)C(C)O)cc1C (stereo not given),inactive: -5.54%
14,CC(=O)Nc1ccc(NC(=O)c2ccc(-c3ccccc3Cl)o2)cc1,inactive: 34.1%
15,OCCC1CN(Cc2c(O)ccc3ccccc23)CCN1CCc1ccccc1 (stereo not given),inactive: -3.06%
16,CC(C)(C)NC(=O)C(c1ccc(O)cc1)N(Cc1ccco1)C(=O)CCC(=O)Nc1ccccn1 (stereo not given),inactive: -11.7%
17,O=C(Nc1ccc(N2C(=O)C3C4C=CC(C4)C3C2=O)cc1Cl)c1cccs1 (stereo not given),inactive: 5.69%
18,CC(=O)C(Cc1ccc(Cl)nc1)Cc1ccc(Cl)nc1,inactive: 7.2%
19,COc1ccc(NC(=O)c2cccc(-n3c(C)ccc3C)c2)c(OC)c1,inactive: 7%
20,CC(=O)c1ccc(NC(=S)NC(=O)/C=C/c2ccc(F)cc2)cc1,inactive: 6.28%
21,OCCN1CCN(Cc2nc(-c3cccc(Cl)c3)no2)CC1,inactive: -9.2%
22,CCOc1ccc(S(=O)(=O)N2CCCC(C(=O)NC3CC3)C2)cc1Cl (stereo not given),inactive: -6.26%
23,CCC(C)NC(=O)Cn1c(=O)n(CCCCCC(=O)NCc2ccccc2Cl)c(=O)c2sccc21 (stereo not given),inactive: -3.97%
24,COc1ccc(S(=O)(=O)Nc2cccnc2)c(C)c1C,inactive: 17.4%
25,CCOc1ccc(C(=O)Nc2ccc(S(=O)(=O)Nc3nccc(C)n3)cc2)cc1OCC,inactive: -10.2%
26,Cn1c(NCc2ccc3occc3c2)nc2cc(-c3cccc(C(F)(F)F)c3)sc2c1=O,inactive: 23.1%
27,CC1(C(=O)NS(=O)(=O)c2ccc(Cl)s2)CCN1C(=O)Cc1cc(F)ccc1F (stereo not given),inactive: -2.32%

row,SMILES,growth rescue (activation)
1,O=C(NNC(=O)c1cccs1)Nc1cccc(Cl)c1,inactive: 16.3%
2,Cc1nc2cc(NC(=O)NCc3ccccc3)ccc2o1,inactive: 28.9%
3,Cc1cc(C(C)(C)C)cc(S(=O)(=O)NCCO)c1C,inactive: 27.4%
4,O=C(CSc1nncc2ccccc12)Nc1ccc(F)cc1,inactive: 7%
5,Cc1ccc(-c2nn(-c3ccccc3)cc2/C=C2\SC(=S)N(CCCCCC(=O)O)C2=O)o1,inactive: 4.62%
6,CCc1nc2c(OCc3cc(Cl)cc(Cl)c3)cccn2c1N(C)C(=O)c1cccc(OC)c1,inactive: 13.2%
7,COCCNC(=S)Nc1ccccc1[N+](=O)[O-],inactive: 0.778%
8,CCCN(CCC)CCCNC(=O)c1cc2c(-c3ccc(OC)c(OC)c3)nn(C)c2s1,inactive: 6.67%
9,Cc1cccc(Nc2nnc(SCC(=O)NC3CCCc4ccccc43)s2)c1C (stereo not given),inactive: 19.5%
10,COc1ccc(-c2cc(C(=O)OC(C)C(=O)Nc3c(C)n(C)n(-c4ccccc4)c3=O)c3ccccc3n2)cc1 (stereo not given),inactive: 22.1%
11,Cc1sc(NC(=O)CSc2nc(O)cc(=O)[nH]2)nc1-c1ccccc1,inactive: 5.55%
12,COc1ccc(S(=O)(=O)N(C)CC(=O)N2CCCC2)cc1Cl,inactive: 6.29%
13,COC(CNC(=O)c1cc(-c2ccncc2)nc2ccc(S(=O)(=O)N3CCOCC3)cc12)OC,inactive: -5.31%
14,CCCOc1ccc(S(=O)(=O)N2CCN(C)CC2)c2ccccc12,inactive: -9.96%
15,CNc1snc(C)c1C(=O)OCC(=O)NCc1ccccc1OC,inactive: 10.4%
16,COCCNC(=O)CCCn1c(=O)c2cc(OC)c(OC)cc2n(CC(=O)c2ccccc2)c1=O,inactive: -3.3%
17,CCCOc1cc(C)nc(-c2ccccc2O)n1,inactive: 11%
18,COCCNC(=O)C(c1ccco1)N(Cc1ccc(OC)cc1)C(=O)Cn1nnc2ccccc21 (stereo not given),inactive: 0.72%
19,COc1ccc(N2CCN(CCC3Oc4cc([N+](=O)[O-])ccc4NC3=O)CC2)cc1 (stereo not given),inactive: 2.37%
20,CCCCCOc1ccc(C(=O)CCC(=O)N2CCCC2)cc1,inactive: 3.68%
21,CCOc1ccc(C(=O)NCC(=O)N2CCN(Cc3ccccc3)CC2)cc1,inactive: 4.5%
22,CC1(C(=O)NCc2cccnc2)CCN1C(=O)c1cccc(F)c1 (stereo not given),inactive: 7.37%
23,Cc1cccnc1NC(=O)c1c(O)c2cccc3c2n(c1=O)CCC3,inactive: -5.42%
24,C=CCC(Nc1ccccc1)c1cccc(OC)c1OC (stereo not given),inactive: -6.2%
25,O=C1CCCC2=C1C(c1ccccc1)C1C(=O)c3ccccc3C1=N2 (stereo not given),inactive: 2.27%
26,COc1ccc(-c2ccc(C(=O)O)o2)c([N+](=O)[O-])c1,inactive: 1.01%
27,COC(=O)C1=C(C)N(C)C(=S)NC1c1ccccc1 (stereo not given),inactive: -26.7%

row,SMILES,growth rescue (activation)
1,Cc1c(C(=O)NC(=S)Nc2ccc(N3CCOCC3)cc2)cccc1[N+](=O)[O-],inactive: 8.72%
2,COCCSc1ccccc1C(=O)N1CCN(c2ccccc2)CC1,inactive: 13.6%
3,O=C(OCc1nc2ccc(Cl)cc2n1CCO)c1ccccc1,inactive: -0.523%
4,O=C(Cc1cccs1)NNC(=O)C12CC3CC(CC(C3)C1)C2,inactive: 8.75%
5,O=C(Nc1ccccc1Cl)c1ccc(Cl)cc1Cl,inactive: 8.83%
6,O=C(CCC(=O)c1cccs1)OCC(=O)c1ccc(F)cc1,inactive: 6.04%
7,O=C1CCCc2nn(-c3ccccc3)c(-c3ccncc3)c21,inactive: 20.9%
8,CC(C)C(NC(=O)c1ccccc1)c1nnc(SCC(=O)NC2CCCC2)n1C (stereo not given),inactive: 1.63%
9,COc1ccc(NC(=O)COC(=O)C2CC(=O)N(c3ccc(C)cc3)C2)cc1 (stereo not given),inactive: 9.01%
10,CSc1cccc(N2C(=O)C3CCCN3C2=S)c1 (stereo not given),inactive: 12.5%
11,COCc1c(C(=O)N/N=C/c2ccc(C)o2)nnn1-c1nonc1N,inactive: -12.8%
12,COC(=O)c1ccc(NC(=O)c2nc(-c3ccc(Cl)cc3)n3c2CCCCC3)cc1,inactive: 27.1%
13,CCn1nc(C(=O)NNC(=O)C(Cc2ccccc2)NC(N)=O)c2ccccc2c1=O (stereo not given),inactive: 6.03%
14,Cc1ncc(CO)c(/C=N/Nc2ccc(C(F)(F)F)cn2)c1O,inactive: 5.76%
15,CCOC(=O)c1ccc(N=Nc2c(C)c(C#N)c(O)[nH]c2=O)cc1,inactive: 6.12%
16,C/C=C/c1ccc(OCCCCOc2c(OC)cccc2OC)c(OC)c1,inactive: 7.36%
17,Cc1ccccc1NS(=O)(=O)c1cc(C(=O)N2CCCC2)ccc1C,inactive: 7.81%
18,CC(NC(=O)Cc1ccccc1)C(c1ccccc1)N1CCOCC1 (stereo not given),inactive: -3.34%
19,CC(C)N(C(=O)NC(=O)Nc1ccccn1)S(C)(=O)=O,inactive: -9.7%
20,C=CCOc1ccc(/C=C2\SC(=S)N(NS(=O)(=O)c3ccccc3)C2=O)cc1,inactive: 1.85%
21,CC(C)(C)C1CCc2nc(NC(=O)Cc3cn4ccsc4n3)sc2C1 (stereo not given),inactive: -81.5%
22,CCCNC(=O)C1(C)CCN(C(=O)c2ccc(F)cc2Cl)C1 (stereo not given),inactive: -1.24%
23,Fc1cccc(-n2ncc3c2ncn2nc(Cc4ccccc4)nc32)c1,inactive: 8.69%
24,CC(=O)NC(C)(c1ccccc1)c1nc(-c2cccc(C(F)(F)F)c2)cs1 (stereo not given),inactive: 25%
25,O=C(O)c1oc2ccccc2c1CSc1ccc(Cl)cc1,inactive: 5.89%
26,O=C(NNS(=O)(=O)c1ccc([N+](=O)[O-])cc1)c1ccncc1,inactive: -5.81%
27,O=C(CSc1nnc(-c2ccc(S(=O)(=O)N3CCCC3)cc2)n1CC1CCCO1)NC1CC1 (stereo not given),inactive: 30.7%

row,SMILES,growth rescue (activation)
1,COc1ccccc1C(=O)C1CCCN(C(=O)c2cn3cc(Cl)ccc3n2)C1 (stereo not given),inactive: 12.4%
2,CC1CCCC(C)N1C(=O)COC(=O)c1ccc(Br)c(S(=O)(=O)N2CCOCC2)c1 (stereo not given),inactive: -21.7%
3,COc1ccc(-n2c(SCC(=O)c3ccc[nH]3)nnc2-c2ccccc2)cc1,inactive: -21%
4,COc1ccccc1CNC(=O)c1ccc2nc(C)c(N(C)Cc3ccc(NC(C)=O)cc3)n2c1,inactive: 10.6%
5,COc1ccc(-c2nn(-c3ccccc3C)cc2CNC(C)c2cn(C)nc2C)cc1F (stereo not given),inactive: -9.64%
6,O=C(C[n+]1cc(Br)cc2ccccc21)c1ccc(Br)cc1,inactive: 3.95%
7,COc1ccc(C2CC(c3cccs3)=NN2C(=O)c2ccco2)cc1OC (stereo not given),inactive: 10.8%
8,COCCNC(C(=O)Nc1ccc([N+](=O)[O-])cc1Br)c1ccccc1 (stereo not given),inactive: 11.2%
9,CN(C)C(=O)CSc1nnc(-c2cccs2)n1-c1ccccc1,inactive: 25.3%
10,CNC(=O)CN1C(=O)NC(Cc2c[nH]c3ccccc23)C1=O (stereo not given),inactive: 1.66%
11,COc1ccccc1/C=C/C(=C1/C(=O)N(c2ccccc2)N=C1C)c1ccc(C)cc1,inactive: -0.76%
12,COc1ccc(C/C(N)=N/O)cc1,inactive: 5.97%
13,CC(O)C(NS(=O)(=O)c1ccc(Cl)cc1)C(=O)OCC(=O)N1CCN(c2ccccc2)CC1 (stereo not given),inactive: 14.5%
14,CC1CCc2c(sc3ncn(Cc4ccc(C(=O)O)cc4)c(=O)c23)C1 (stereo not given),inactive: 4.32%
15,COCC(=O)N1CCC(Oc2ccc(C(=O)NC3CCOC(C)(C)C3)cc2)CC1 (stereo not given),inactive: 2.81%
16,CC(=O)Nc1cccc(OCC(=O)NC(C)c2ccc3ccccc3c2)c1 (stereo not given),inactive: 3.12%
17,N#CCc1ccc(NC(=O)c2cc(S(=O)(=O)N3CCOCC3)ccc2Cl)cc1,inactive: 0.833%
18,O=C(COC(=O)c1ccc(CNS(=O)(=O)c2ccc(F)c(Cl)c2)cc1)NC1CCCCCCC1,inactive: 15.7%
19,COc1cc(CC(NC(C)=O)C(=O)NC2CCN(C(=O)c3cc(OC)c(OC)c(OC)c3)CC2)cc(OC)c1 (stereo not given),inactive: 2.53%
20,O=C(c1ccccc1)c1ccc(-n2ccnc2)c([N+](=O)[O-])c1,inactive: 2.06%
21,Cc1cc(NC(=O)Cn2ccc([N+](=O)[O-])n2)no1,inactive: 1.08%
22,Cc1nc(Cl)c(N=Cc2cccc([N+](=O)[O-])c2)c(Cl)n1,inactive: 17.7%
23,Cc1c(C)n(CCCN(C)C)c2ncnc(NC3CCCCC3)c12,inactive: -3.83%
24,CCOc1ccc(NS(=O)(=O)c2cc(C(=O)NCCN3CCOCC3)ccc2C)cc1,inactive: 2.4%
